Laboratory results as given in PubChem BioAssay AID1468 (National Center for Advancing Translational Sciences (NCATS), 2008).
In all, about 280,000 compounds went through this assay and about 1,100 (0.39%) were called active. This list was built around the results that the source calls inconclusive (neither active nor inactive); the mix of calls is not that of the screen. The call rests on the fitted dose curve; in most records, active means well fitted inhibition curve with a large enough effect; inconclusive means small, poorly fitted or top-dose-only effect, or effect the other way; inactive means flat fitted curve, though single readings scatter. No potency is given beside an inconclusive call; the fits are too rough.
Further: nearly all actives have a fitted effect of over 55% in size.
On the % scale 0 is the no-effect control and ±100 the full control effect; potency means the concentration at half of the fitted maximal effect; tags describe the fitted curve by direction and shape.

The molecules below were run against Microtubule-associated protein tau (Homo sapiens) (UniProt P10636) (assay: qHTS for Inhibitors of Tau Fibril Formation, Fluorescence Polarization). Conditions: K18 P301L tau heparin fibrillization, Alexa594 FP, 6 h; series mostly up to 57.7 µM; activity, negative = inhibition: at the top concentration.
Chain of UniProt P10636 (P10636 whole entry, looked up, the tested form may be a part): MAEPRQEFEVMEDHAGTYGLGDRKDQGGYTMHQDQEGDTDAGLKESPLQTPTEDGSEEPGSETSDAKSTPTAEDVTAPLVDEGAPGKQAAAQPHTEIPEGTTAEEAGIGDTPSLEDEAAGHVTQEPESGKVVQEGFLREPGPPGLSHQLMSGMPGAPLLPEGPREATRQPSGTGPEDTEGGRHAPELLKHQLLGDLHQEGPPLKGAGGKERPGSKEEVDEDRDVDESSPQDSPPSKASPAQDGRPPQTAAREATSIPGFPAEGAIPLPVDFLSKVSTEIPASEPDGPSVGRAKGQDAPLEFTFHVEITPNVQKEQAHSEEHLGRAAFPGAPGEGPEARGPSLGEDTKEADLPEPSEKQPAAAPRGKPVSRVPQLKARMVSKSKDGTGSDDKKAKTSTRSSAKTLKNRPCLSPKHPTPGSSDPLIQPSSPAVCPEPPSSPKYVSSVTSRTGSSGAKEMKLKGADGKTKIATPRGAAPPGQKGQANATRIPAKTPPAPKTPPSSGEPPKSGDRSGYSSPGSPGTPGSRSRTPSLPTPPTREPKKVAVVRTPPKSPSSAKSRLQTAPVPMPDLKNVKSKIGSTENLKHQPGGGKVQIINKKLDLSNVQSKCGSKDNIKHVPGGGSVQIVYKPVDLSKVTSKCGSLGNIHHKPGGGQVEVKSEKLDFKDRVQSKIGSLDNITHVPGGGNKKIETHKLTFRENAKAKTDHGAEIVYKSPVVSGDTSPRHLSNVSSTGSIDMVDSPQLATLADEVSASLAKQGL
Outline: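 Human tau K18 […] P301L fragment, 15 uM unlabeled plus 0.24 uM Alexa 594-labeled tau (final), with compound and 20 uM heparin in 100 mM sodium acetate pH 7; 6 hr at 37 C, then Alexa 594 FP read.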
With `O=C(CSc1n[nH]c(-c2ccc(S(=O)(=O)N3CCCCC3)cc2)n1)Nc1nccs1` the Potency was inconclusive [inhibitor, partial curve, poor fit]. For `CC(C)(C)c1ccc(/C=C/C(=O)N2CCc3ccccc3C2)cc1`, the “activity, negative = inhibition” value was inactive: -6.35%. For `COc1ccc(Cn2c(CCC(=O)Nc3cccc(Cl)c3)nc3cccnc32)cc1`, the Potency was inconclusive [inhibitor, partial curve]. For `O=C(Nc1ccccc1)Nc1nnc(CSCc2ccccc2Cl)s1`, the Potency was active: 10 µM. `O=C(COc1ncnc2c1cnn2-c1ccccc1)Nc1ccc(S(=O)(=O)N2CCCCC2)cc1` was tested, and the Potency was active: 17.8 µM. For `O=C(N/N=C/C=C\c1ccco1)c1ccccn1`, the Potency was inconclusive [inhibitor, single point]. For `COc1ccc(-c2nsc(NC(=O)c3cccc(OC)c3)n2)cc1`, the Potency was inconclusive [inhibitor, single point]. With `CCN(CC)CCNC(=O)c1ccc2c(=O)n3nc(Nc4cccc(Cl)c4C)sc3nc2c1` the Potency was inconclusive [inhibitor, partial curve]. `Cc1ccc(OCCSc2nc3ccccc3n2CC(=O)N2CCCCC2)c(C)c1` was tested, and the “activity, negative = inhibition” value was inactive: 3.82%. With `O=C(Cn1c(=O)n(Cc2ccc(F)cc2)c(=O)c2sc3ccccc3c21)NCc1ccccc1` the Potency was inconclusive [inhibitor, partial curve]. For `O=C(Cn1c(=O)oc2cc(S(=O)(=O)N3CCCC3)ccc21)Nc1ccc(OC(F)(F)F)cc1`, the Potency was inconclusive [inhibitor, partial curve]. In the case of `O=C(Nc1cccc(Cl)c1)Nc1nnc(CSCCOc2ccc(Cl)cc2)s1`, the Potency is reported as active: 7.94 µM. `Cc1nc2ccc(S(=O)(=O)N(CC(=O)Nc3cccc(C)c3C)Cc3ccccc3)cc2s1` was tested, and the “activity, negative = inhibition” value was inactive: -12.5%. With `CCCc1ccc(Oc2c(-c3ccc(O)c(C)c3O)n[nH]c2C)cc1` the Potency was inconclusive [inhibitor, single point]. With `COc1ccc(OCC(=O)Nc2cccc(-c3nc4ccccc4[nH]3)c2)cc1` the Potency was inconclusive [inhibitor, partial curve]. In the case of `O=C(NC1=NCCS1)c1cc(-c2ccc(-c3ccccc3)cc2)nc2ccccc12`, the Potency is reported as active: 28.2 µM. `O=C(CSc1ccccc1C(=O)O)NC12CC3CC(CC(C3)C1)C2` was tested, and the “activity, negative = inhibition” value was inactive: 1.48%. In the case of `O=C(c1ccccc1)c1cnc2ccc(Cl)cc2c1N1CCOCC1`, the “activity, negative = inhibition” value is reported as inactive: -3.93%. `COc1cccc2cc(-c3nnc(Nc4ccccc4C)s3)c(=O)oc12` was tested, and the “activity, negative = inhibition” value was inactive: 4.96%. For `CN1C(=O)c2ccc(NC(=O)c3ccc(N4CCCCC4)c([N+](=O)[O-])c3)cc2C1=O`, the Potency was inconclusive [inhibitor, full curve, poor fit]. `O=C(O)CCCN1C(=O)/C(=C/c2ccncc2)SC1=S` was tested, and the Potency was inconclusive [inhibitor, single point]. In the case of `Cc1ccc(/C=c2\sc3nc(-c4ccco4)nn3c2=O)o1`, the Potency is reported as inconclusive [inhibitor, partial curve]. In the case of `S=C(NCc1ccccc1)NNc1ccccc1`, the Potency is reported as inconclusive [inhibitor, full curve]. For `Cn1nc(-c2ccccc2)c(CSc2cccc(Cl)c2)c1Cl`, the Potency was inconclusive [inhibitor, partial curve]. In the case of `CC(=O)c1cc(C#N)c(SCC(=O)Nc2nccs2)nc1C`, the Potency is reported as inconclusive [activator, partial curve]. `Cc1ccc(CCNC(=O)NCc2noc3ccc(C)cc23)cc1` was tested, and the “activity, negative = inhibition” value was inactive: -6.63%. For `Cc1cc(F)ccc1NC(=O)C1CCCN(c2nnc(-n3c(C)ccc3C)s2)C1` (configuration not stated), the Potency was inconclusive [inhibitor, single point]. `Cc1oc2c(c1C(=O)c1ccc(Cl)cc1)C(=O)C(=O)c1ccccc1-2` was tested, and the Potency was inconclusive [inhibitor, full curve]. `CC1CCc2sc(C(=O)N/N=C/c3ccc(O)cc3)cc2C1` (configuration not stated) was tested, and the Potency was inconclusive [inhibitor, partial curve, poor fit]. In the case of `Cc1cc(C)cc(N2C(=O)CS(=O)(=O)C23C(=O)N(Cc2ccc(F)cc2)c2ccc(C)cc23)c1` (configuration not stated), the “activity, negative = inhibition” value is reported as inactive: -6.16%. For `COc1ccc(CNC(=O)CCSCc2ccc(C)cc2)cc1`, the “activity, negative = inhibition” value was inactive: 3.52%. In the case of `CC1=NN(c2ccc([N+](=O)[O-])cc2)C(c2ccccc2)C1` (configuration not stated), the “activity, negative = inhibition” value is reported as inactive: 2.08%. In the case of `Cc1ccccc1CNC(=O)C(=O)NCC(c1ccco1)S(=O)(=O)c1ccc(F)cc1` (configuration not stated), the “activity, negative = inhibition” value is reported as inactive: 1.01%. In the case of `CCNC(=S)N/N=C/c1cn(Cc2ccc(F)cc2)c2ccccc12`, the Potency is reported as inconclusive [activator, partial curve, poor fit]. In the case of `CN1C(=S)N(c2ccccc2)C(=O)/C1=C/c1cccs1`, the “activity, negative = inhibition” value is reported as inactive: -3.99%. `CN1CCc2c(sc(/N=C/c3c[nH]c4ccccc34)c2C#N)C1` was tested, and the Potency was inconclusive [inhibitor, partial curve]. For `Cc1oc(C)c2c(=O)ccc3c(c12)OC(N)=C(C#N)C3c1ccccc1` (configuration not stated), the Potency was inconclusive [inhibitor, single point]. For `Cc1ccc2c(=O)cc(C(=O)Nc3sc4c(c3C(=O)NCc3ccco3)CCCC4)oc2c1C`, the “activity, negative = inhibition” value was inactive: -1.76%. In the case of `O=C(N/N=C/c1coc2ccccc2c1=O)c1ccccc1`, the “activity, negative = inhibition” value is reported as inactive: -0.224%. For `O=C(CSc1ncn(-c2ccccc2)n1)Nc1nncs1`, the Potency was inconclusive [inhibitor, single point]. For `Cc1cccc(C(=O)NC2(C(F)(F)F)N=C(c3ccccc3)N(Cc3ccccc3)C2=O)c1` (configuration not stated), the “activity, negative = inhibition” value was inactive: -5.71%. In the case of `O=C(Nc1nc(-c2cc3ccccc3oc2=O)cs1)c1ccc(Br)o1`, the “activity, negative = inhibition” value is reported as inactive: 5.6%. In the case of `CCOc1ccc2c(c1)c(=O)c(S(=O)(=O)c1ccc(C)cc1)cn2CC(=O)Nc1ccc(C)cc1`, the Potency is reported as inconclusive [inhibitor, partial curve]. `O=C(Nc1ccccc1)c1ccc2nc(-c3ccco3)c(-c3ccco3)nc2c1` was tested, and the Potency was inconclusive [inhibitor, single point]. With `Cc1cc(C)cc(NC(=O)Nc2ccc(-n3ccc(C(F)(F)F)n3)cc2)c1` the Potency was active: 17.8 µM. `CCOc1ccc(CC(=O)NNC(=S)Nc2ccc(OC)c(OC)c2)cc1` was tested, and the “activity, negative = inhibition” value was inactive: -5.91%. In the case of `O=C(CSc1nc2ccccc2n1CC(=O)Nc1ccc(F)cc1F)Nc1ccc(F)cc1`, the Potency is reported as inconclusive [inhibitor, single point].
